Data reported in publication PMC7819943, “Rice protein-binding microarrays: a tool to detect cis-acting elements near promoter regions in rice”.
Some of the results follow.

Molecular target: T1, OsWOX13 (Oryza sativa, UniProt Q5QMM3 1-267)
T1 sequence: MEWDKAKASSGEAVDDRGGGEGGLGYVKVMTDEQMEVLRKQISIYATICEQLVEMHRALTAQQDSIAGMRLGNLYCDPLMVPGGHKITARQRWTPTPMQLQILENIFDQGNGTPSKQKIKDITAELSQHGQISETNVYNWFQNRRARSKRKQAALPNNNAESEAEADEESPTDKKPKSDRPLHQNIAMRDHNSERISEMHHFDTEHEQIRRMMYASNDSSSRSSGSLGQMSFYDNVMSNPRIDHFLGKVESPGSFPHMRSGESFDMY
Experiment: protein-binding microarray (RPBM); PBS, 2% BSA, 51.3 ng/ul salmon testes DNA, 50 uM zinc acetate, 200 nM TF, 25 C, 1 h; high values mean tight binding
Details: protein: recombinant; tags: N-terminal polyhistidine and DsRed monomer fusion (pET32a); label: CyDye5-dUTP incorporated in the synthesized complementary strand; 3' TTTTT single-stranded linker to array surface; dsDNA, one strand shown
Summary of the method: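 Transcription factors were made in E. coli BL21-CodonPlus as N-terminal fusions to a polyhistidine tag and DsRed, then purified on Ni–NTA. After primer extension with Cy5-dUTP and blocking with 2% BSA, a custom Agilent array was exposed for 1 h at 25 °C to 200 nM protein in PBS, 2% BSA, salmon testes DNA and 50 µM zinc acetate. Washed arrays were scanned on an Axon 4000B, and the binding signal is per-feature fluorescence intensity in arbitrary units.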

Sequence | binding signal
TCTTCTAATATATTGACGTGCAATCCTTTTACGCGTTCGCCGGAGTCACCTAGTGCAG | 4860 fluorescence intensity (a.u.)
GAGAAATTGGAGCTGATCAACCGGAGAGCGCAAAGCCACCCGGAGTCACCTAGTGCAG | 3560 fluorescence intensity (a.u.)
CAAAATTGGAGATTCTCAGCTGAAAGGCTATCTAGCGGGCCGGAGTCACCTAGTGCAG | 10200 fluorescence intensity (a.u.)
AAAATTTAAATGATGGATAAAACCCATATAAATTTAAGATCGGAGTCACCTAGTGCAG | 9290 fluorescence intensity (a.u.)
TCCTACGTGATTGATGTGCTCATTAATTGTACTAGATAGACGGAGTCACCTAGTGCAG | 52100 fluorescence intensity (a.u.)
AACATAGACAGGAAATGGGACGGAAACGTCGTCCCAGTCTCGGAGTCACCTAGTGCAG | 4520 fluorescence intensity (a.u.)
CCTGATATGATGGTGAATTCATTGTTGATTCCCGATTCATCGGAGTCACCTAGTGCAG | 16000 fluorescence intensity (a.u.)
TCTTGACAGCTGGGGACATTTCCTTGGAAGTGATAATGCACGGAGTCACCTAGTGCAG | 19300 fluorescence intensity (a.u.)
TACAATTTAAATTTCTAACTTGTAAAAGTCAAATTCTTGTCGGAGTCACCTAGTGCAG | 6580 fluorescence intensity (a.u.)
AGTAATTATATGTGTAAGTGGGATGTAAGCGGGGTATAAACGGAGTCACCTAGTGCAG | 9300 fluorescence intensity (a.u.)
ACTAATTATAATATTGTCAATGTTTCATATTTTGGCTTTCCGGAGTCACCTAGTGCAG | 33700 fluorescence intensity (a.u.)
ATGATTTGTTTTCTTCCTCACCAAAACAAATCGTGTAATACGGAGTCACCTAGTGCAG | 12600 fluorescence intensity (a.u.)
ACACATGATTAGTCAAATCACGCATATATACGTGCTCGCCCGGAGTCACCTAGTGCAG | 39500 fluorescence intensity (a.u.)
GCAGATTGTAATATAATTTCCACGTCTTGATAGTTATGGTCGGAGTCACCTAGTGCAG | 28100 fluorescence intensity (a.u.)
CACATATTTAACAGTCCATCACACAGAGGACTTTATGTAACGGAGTCACCTAGTGCAG | 3770 fluorescence intensity (a.u.)
TGCCAATTATCCAAAAGTAATAGGACATGGCTGCGACCCTCGGAGTCACCTAGTGCAG | 23200 fluorescence intensity (a.u.)
ACTGATGAAATATCAAAGTGATTGTCAGACAAAGCGCCATCGGAGTCACCTAGTGCAG | 25800 fluorescence intensity (a.u.)
GACATATTATTAGATTGACAAAATGTGTTCAATATATATCCGGAGTCACCTAGTGCAG | 30900 fluorescence intensity (a.u.)
ATTAAATTTAGGATAATCTTTAAACCCTCGAATGTGAAGGCGGAGTCACCTAGTGCAG | 11900 fluorescence intensity (a.u.)
AATAAGATGATTAAGTTGTTAATGCCTTTTCTCCATGATGCGGAGTCACCTAGTGCAG | 12600 fluorescence intensity (a.u.)
ATAATGATGATTGTTTCTTTAACACATGGGCTATGTTTATCGGAGTCACCTAGTGCAG | 47200 fluorescence intensity (a.u.)

Sequence | binding signal
AATAATTAGCAAGAAACAGTGAGATGAATCTCTACTGTGGCGGAGTCACCTAGTGCAG | 21800 fluorescence intensity (a.u.)
AAAACATAATTTGGCTGAAATCCCTTTTCTTATCCCATCCCGGAGTCACCTAGTGCAG | 5960 fluorescence intensity (a.u.)
GAAATTATAATCTTAACTTATACTTTTACATATTTGTAATCGGAGTCACCTAGTGCAG | 8370 fluorescence intensity (a.u.)
TTTGATGATATGATCCCCTTAAGGGGTGTGCCTTTTATACCGGAGTCACCTAGTGCAG | 4230 fluorescence intensity (a.u.)
CGATAAATTTCAACGAAAATTTGACGAGCCTTTTGGCCAACGGAGTCACCTAGTGCAG | 6340 fluorescence intensity (a.u.)
AGCCAATCAGGTTTCAGGAGACACGTCCTAAACCGTGGGACGGAGTCACCTAGTGCAG | 11900 fluorescence intensity (a.u.)
TAATTATTAATTATTTTATTGTAATTTGTTTTATCATGAACGGAGTCACCTAGTGCAG | 9740 fluorescence intensity (a.u.)
TACTAATTATCTCCTCAGTATCTCATATATGTTTATGAAACGGAGTCACCTAGTGCAG | 12100 fluorescence intensity (a.u.)
GCCTAGTTGATTGAACATTCGTTTTCTTTCAACAAATAAGCGGAGTCACCTAGTGCAG | 17800 fluorescence intensity (a.u.)
CGTTGTGTAACTATAACTCTTATCTTCTAATATATTAACGCGGAGTCACCTAGTGCAG | 5450 fluorescence intensity (a.u.)
ACTAATTAATCCATCATTAGAAAATGTTCACTCTAGCACCCGGAGTCACCTAGTGCAG | 32400 fluorescence intensity (a.u.)
CATTCTATAAACGTGGTAATTTGCTAGTGGACACCGTGCCCGGAGTCACCTAGTGCAG | 3610 fluorescence intensity (a.u.)
CCACGTGGATTAATTGCTACTGGTTCAGTTGATCAGTTGCCGGAGTCACCTAGTGCAG | 12500 fluorescence intensity (a.u.)
ATATTATTGATAACAAATCACGTGTTACTGATATAAATCACGGAGTCACCTAGTGCAG | 11300 fluorescence intensity (a.u.)
GGTATATTGATCTGAATCATCTGGTACTATCAATTGTAGGCGGAGTCACCTAGTGCAG | 6430 fluorescence intensity (a.u.)
CATCATCAATTGACAGCCGTTGGATCACTTGATTACATTGCGGAGTCACCTAGTGCAG | 25000 fluorescence intensity (a.u.)
TAATTAAAACTTAATTAATCACACATTATTACCACTCCATCGGAGTCACCTAGTGCAG | 18800 fluorescence intensity (a.u.)
ATTTGTAATTTGTATCTATATATATTTGCAATGCTTAAGCCGGAGTCACCTAGTGCAG | 15600 fluorescence intensity (a.u.)
TTCATTAATCTCCCGGTGATGGATGAACGGGGAAAAGGGCCGGAGTCACCTAGTGCAG | 4280 fluorescence intensity (a.u.)
TTGGATTAACACATGGATTAGCGCTTGCACCCCGTCGTCGCGGAGTCACCTAGTGCAG | 7320 fluorescence intensity (a.u.)
GTATACCTTTTAATTTGTGCGAAACTATATAAATGAGGCGCGGAGTCACCTAGTGCAG | 3310 fluorescence intensity (a.u.)
